No constants are given. Whether binding was seen depends on the method and setting. In cells and extracts the contact can be indirect. Some binding calls cover weakened binding; strength is not graded here. For some of these results: Sequences can lack the tags named with a protein.
T1: 3x FLAG-tagged wild-type LONP1 (human ATP-dependent mitochondrial Lon protease) (human) (UniProt P36776)
T1 sequence: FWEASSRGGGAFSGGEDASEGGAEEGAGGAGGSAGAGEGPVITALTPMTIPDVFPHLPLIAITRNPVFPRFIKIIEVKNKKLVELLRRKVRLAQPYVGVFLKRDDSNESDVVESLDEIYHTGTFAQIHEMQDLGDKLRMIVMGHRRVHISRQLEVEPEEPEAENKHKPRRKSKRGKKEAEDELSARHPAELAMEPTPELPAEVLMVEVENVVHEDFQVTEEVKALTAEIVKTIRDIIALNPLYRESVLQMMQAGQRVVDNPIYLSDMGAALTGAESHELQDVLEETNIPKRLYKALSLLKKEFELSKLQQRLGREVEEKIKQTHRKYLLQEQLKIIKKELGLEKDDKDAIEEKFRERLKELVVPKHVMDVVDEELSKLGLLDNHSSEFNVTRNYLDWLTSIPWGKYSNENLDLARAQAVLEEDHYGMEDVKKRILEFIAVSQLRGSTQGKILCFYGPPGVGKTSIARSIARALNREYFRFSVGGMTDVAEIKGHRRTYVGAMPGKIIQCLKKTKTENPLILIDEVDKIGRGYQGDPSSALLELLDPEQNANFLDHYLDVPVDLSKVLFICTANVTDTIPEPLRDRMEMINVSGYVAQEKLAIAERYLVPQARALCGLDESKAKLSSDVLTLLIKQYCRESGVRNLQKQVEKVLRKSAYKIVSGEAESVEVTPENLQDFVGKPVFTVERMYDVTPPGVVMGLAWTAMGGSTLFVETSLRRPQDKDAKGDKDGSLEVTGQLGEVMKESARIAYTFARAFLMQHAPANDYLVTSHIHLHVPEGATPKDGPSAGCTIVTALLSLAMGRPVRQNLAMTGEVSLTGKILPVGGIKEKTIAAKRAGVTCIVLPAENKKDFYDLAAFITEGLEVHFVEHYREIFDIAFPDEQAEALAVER

By UniProt entry, the sequences of proteins in these tests, tags left out. Residues count along the entry.
UniProt P38646, residues 47-679: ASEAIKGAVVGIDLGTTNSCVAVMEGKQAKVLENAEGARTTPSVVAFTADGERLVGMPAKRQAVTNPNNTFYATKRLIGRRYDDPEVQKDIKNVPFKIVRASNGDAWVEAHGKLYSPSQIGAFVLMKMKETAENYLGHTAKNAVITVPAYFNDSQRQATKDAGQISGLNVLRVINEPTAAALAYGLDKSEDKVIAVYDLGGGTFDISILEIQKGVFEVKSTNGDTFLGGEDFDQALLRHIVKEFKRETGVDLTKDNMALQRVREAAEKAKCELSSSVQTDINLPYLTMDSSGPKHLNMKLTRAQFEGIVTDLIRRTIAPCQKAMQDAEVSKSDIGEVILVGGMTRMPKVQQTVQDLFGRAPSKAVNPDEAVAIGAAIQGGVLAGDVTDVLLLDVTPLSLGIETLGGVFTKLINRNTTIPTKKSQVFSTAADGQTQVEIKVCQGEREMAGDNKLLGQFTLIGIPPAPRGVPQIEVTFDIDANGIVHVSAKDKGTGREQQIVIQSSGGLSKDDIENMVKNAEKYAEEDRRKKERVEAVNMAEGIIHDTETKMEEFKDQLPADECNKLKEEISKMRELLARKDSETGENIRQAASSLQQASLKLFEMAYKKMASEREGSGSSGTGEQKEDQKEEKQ

T2: LONP1 (endogenous, in isolated HeLa mitochondria) (human (endogenous in HeLa)) (UniProt P36776)
T2 sequence: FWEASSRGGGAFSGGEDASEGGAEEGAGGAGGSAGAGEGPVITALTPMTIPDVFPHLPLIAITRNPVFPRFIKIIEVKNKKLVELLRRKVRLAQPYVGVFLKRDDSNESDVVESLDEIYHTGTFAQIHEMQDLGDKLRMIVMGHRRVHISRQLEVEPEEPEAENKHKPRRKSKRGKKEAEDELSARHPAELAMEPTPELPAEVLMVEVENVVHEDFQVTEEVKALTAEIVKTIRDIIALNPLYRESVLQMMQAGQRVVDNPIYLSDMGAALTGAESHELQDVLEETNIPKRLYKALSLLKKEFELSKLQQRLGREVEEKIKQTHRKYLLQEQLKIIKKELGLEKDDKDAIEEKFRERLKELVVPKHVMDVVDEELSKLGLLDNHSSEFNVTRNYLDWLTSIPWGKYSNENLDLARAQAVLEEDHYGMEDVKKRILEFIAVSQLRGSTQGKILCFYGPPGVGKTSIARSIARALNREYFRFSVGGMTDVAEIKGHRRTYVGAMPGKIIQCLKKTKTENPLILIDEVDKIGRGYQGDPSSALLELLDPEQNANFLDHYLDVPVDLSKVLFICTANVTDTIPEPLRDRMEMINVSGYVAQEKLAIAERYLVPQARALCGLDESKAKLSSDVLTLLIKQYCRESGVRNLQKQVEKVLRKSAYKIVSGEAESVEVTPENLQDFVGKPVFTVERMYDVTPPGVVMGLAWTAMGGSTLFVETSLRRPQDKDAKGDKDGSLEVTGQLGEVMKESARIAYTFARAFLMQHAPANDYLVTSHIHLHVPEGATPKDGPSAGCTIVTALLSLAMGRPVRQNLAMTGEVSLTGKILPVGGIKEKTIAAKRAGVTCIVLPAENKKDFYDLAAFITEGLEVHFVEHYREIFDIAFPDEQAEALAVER

T3: mitochondrial inner membrane translocase, TIMM22 (human (endogenous; HeLa or HEK293, cells not stated)) (UniProt Q9Y584)
T3 sequence: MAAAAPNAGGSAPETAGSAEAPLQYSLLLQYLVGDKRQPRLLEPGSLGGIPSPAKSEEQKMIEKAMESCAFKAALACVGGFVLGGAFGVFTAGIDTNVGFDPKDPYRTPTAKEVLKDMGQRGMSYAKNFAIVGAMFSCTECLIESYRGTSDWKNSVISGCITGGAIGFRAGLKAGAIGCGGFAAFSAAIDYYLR


Assays:
[1] = target: T1, 3x FLAG-tagged wild-type LONP1 (human ATP-dependent mitochondrial Lon protease) (human); experiment: co-IP; HEK293 cells expressing 3xFLAG-LONP1 (1 ng/mL doxycycline, 3 d) treated with the reversible crosslinker DSP (2 mM, on ice, 30 min), extracted in RIPA buffer; anti-FLAG-tag mAb magnetic beads, 90 min at 4 °C, eluted with FLAG peptides; DSP cleaved with DTT; immunoblot
[2] = target: T2, LONP1 (endogenous, in isolated HeLa mitochondria) (human (endogenous in HeLa)); experiment: co-IP; in vitro import assay: in vitro translated precursor incubated with isolated HeLa mitochondria for 20 min at 30 °C; mitochondria treated with DSP on ice for 30 min, extracted in RIPA buffer; anti-LONP1 antibody (Proteintech) on Dynabeads Protein G; immunoblot (Supplementary Fig. S10b)
[3] = target: T3, mitochondrial inner membrane translocase, TIMM22 (human (endogenous; HeLa or HEK293, cells not stated)); experiment: co-IP; immunoprecipitation with anti-TIMM22 antibody (Proteintech) on Dynabeads Protein G; immunoblot (Supplementary Fig. S9d)

binding [1] | Molecule | further results
binds | MRPS16 (from UniProt Q9Y3D3 35-137) | 
 | SOD2-3xFLAG, unprocessed form (mitochondrial precursor protein) (protein, UniProt P04179 1-222) MLSRAVCGTSRQLAPVLGYLGSRQKHSLPDLPYDYGALEPHINAQIMQLHHSKHHAAYVNNLNVTEEKYQEALAKGDVTAQIALQPALKFNGGGHINHSIFWTNLSPNGGGEPKGELLEAIKRDFGSFDKFKEKLTAASVGVQGSGWGWLGFNKERGHLQIAACPNQDPLQGTTGLIPLLGIDVWEHAYYLQYKNVRPDYLKAIWNVINWENVTERYMACKK | binding [2]: no binding
no binding | superoxide dismutase 2 (SOD2), endogenous (protein, UniProt P04179 25-222) KHSLPDLPYDYGALEPHINAQIMQLHHSKHHAAYVNNLNVTEEKYQEALAKGDVTAQIALQPALKFNGGGHINHSIFWTNLSPNGGGEPKGELLEAIKRDFGSFDKFKEKLTAASVGVQGSGWGWLGFNKERGHLQIAACPNQDPLQGTTGLIPLLGIDVWEHAYYLQYKNVRPDYLKAIWNVINWENVTERYMACKK | 
 | SOD2-3xFLAG, mature form (protein, UniProt P04179 25-222) KHSLPDLPYDYGALEPHINAQIMQLHHSKHHAAYVNNLNVTEEKYQEALAKGDVTAQIALQPALKFNGGGHINHSIFWTNLSPNGGGEPKGELLEAIKRDFGSFDKFKEKLTAASVGVQGSGWGWLGFNKERGHLQIAACPNQDPLQGTTGLIPLLGIDVWEHAYYLQYKNVRPDYLKAIWNVINWENVTERYMACKK | binding [2]: no binding
binds | PMPCB (protease subunit of mitochondrial processing peptidase) (protein, UniProt O75439 44-489) STQAATQVVLNVPETRVTCLESGLRVASEDSGLSTCTVGLWIDAGSRYENEKNNGTAHFLEHMAFKGTKKRSQLDLELEIENMGAHLNAYTSREQTVYYAKAFSKDLPRAVEILADIIQNSTLGEAEIERERGVILREMQEVETNLQEVVFDYLHATAYQNTALGRTILGPTENIKSISRKDLVDYITTHYKGPRIVLAAAGGVSHDELLDLAKFHFGDSLCTHKGEIPALPPCKFTGSEIRVRDDKMPLAHLAIAVEAVGWAHPDTICLMVANTLIGNWDRSFGGGMNLSSKLAQLTCHGNLCHSFQSFNTSYTDTGLWGLYMVCESSTVADMLHVVQKEWMRLCTSVTESEVARARNLLKTNMLLQLDGSTPICEDIGRQMLCYNRRIPIPELEARIDAVNAETIREVCTKYIYNRSPAIAAVGPIKQLPDFKQIRSNMCWLRD | 
 | LONP1 (as in the co-immunoprecipitations of Supplementary Fig. S9) (enzyme, UniProt P36776 68-959) FWEASSRGGGAFSGGEDASEGGAEEGAGGAGGSAGAGEGPVITALTPMTIPDVFPHLPLIAITRNPVFPRFIKIIEVKNKKLVELLRRKVRLAQPYVGVFLKRDDSNESDVVESLDEIYHTGTFAQIHEMQDLGDKLRMIVMGHRRVHISRQLEVEPEEPEAENKHKPRRKSKRGKKEAEDELSARHPAELAMEPTPELPAEVLMVEVENVVHEDFQVTEEVKALTAEIVKTIRDIIALNPLYRESVLQMMQAGQRVVDNPIYLSDMGAALTGAESHELQDVLEETNIPKRLYKALSLLKKEFELSKLQQRLGREVEEKIKQTHRKYLLQEQLKIIKKELGLEKDDKDAIEEKFRERLKELVVPKHVMDVVDEELSKLGLLDNHSSEFNVTRNYLDWLTSIPWGKYSNENLDLARAQAVLEEDHYGMEDVKKRILEFIAVSQLRGSTQGKILCFYGPPGVGKTSIARSIARALNREYFRFSVGGMTDVAEIKGHRRTYVGAMPGKIIQCLKKTKTENPLILIDEVDKIGRGYQGDPSSALLELLDPEQNANFLDHYLDVPVDLSKVLFICTANVTDTIPEPLRDRMEMINVSGYVAQEKLAIAERYLVPQARALCGLDESKAKLSSDVLTLLIKQYCRESGVRNLQKQVEKVLRKSAYKIVSGEAESVEVTPENLQDFVGKPVFTVERMYDVTPPGVVMGLAWTAMGGSTLFVETSLRRPQDKDAKGDKDGSLEVTGQLGEVMKESARIAYTFARAFLMQHAPANDYLVTSHIHLHVPEGATPKDGPSAGCTIVTALLSLAMGRPVRQNLAMTGEVSLTGKILPVGGIKEKTIAAKRAGVTCIVLPAENKKDFYDLAAFITEGLEVHFVEHYREIFDIAFPDEQAEALAVER | binding [3]: no binding

Molecule | binding [1] | further results
mtHSP70/mortalin/HSPA9 (from UniProt P38646 47-679) | binds | 

From publication PMC8368198
